# Laboratory results as given in PubChem BioAssay AID2060338 (Molecular Pharmacology Branch, DTP, NCI, 2025).
# For part of its entries the source gives two or more results. Only these are listed. There may be further records. Results that share an entry are repeated measurements in other runs, samples, wells, individuals or studies. Signs of the kind (2×) give the number of equal values in this list. Marks such as [2022-09] give the month of the run.
# Test system: 556581-035-R-J1-PDC spheroids with HUVEC/MSC, viability
# Assay: Anticancer human tumor 556581-035-R-J1-PDC patient-derived ovarian carcinoma cell line growth inhibition [IpAb]
# Settings: for viability, T/C: stronger effect = lower value; for IC50: compound alone, run of 06/01/2021
# From the text: Combinatorial screen of targeted agents with ipatasertib and abemaciclib in multi-cell type tumor spheroids
# A high-throughput screen of multi-cell type tumor spheroids was designed to identify active combinations of targeted small molecules and ipatasertib or abemaciclib. Complex spheroids include a stromal component modeled by human endothelial cells (HUVEC) and fibroblasts modeled by human mesenchymal stem cells (MSCs). The concentration ranges selected for each drug and investigational agent were based upon clinically achievable concentrations if the clinical Cmax of the agent was known.
# Compounds. The drugs and investigational agents: ipatasertib (NSC767898), abemaciclib(NSC768073), selumetinib (NSC741078), trametinib (758246), adavosertib (NSC754352), everolimus (NSC733504), sapanisertib (NSC764658), vemurafenib (NSC761431), venetoclax (NSC766270), copanlisib (NSC809693), apelisib (NSC765974), palbociblib (NSC758247), vemurafenib (NSC761431), dabrafenib (NSC764134), ravoxertinib (NSC781343), BMS-387032 (NSC767048), sotorasib (NSC818433), talazoparib (NSC767125) and afursertib (NSC778305), were obtained from the National Cancer Institute (NCI) Developmental Therapeutics Program Chemical Repository. The FDA-approved anticancer drug set is available from the NCI Developmental Therapeutics Program. […] The stock solutions were prepared in dimethyl sulfoxide (DMSO, Sigma-Aldrich, St. Louis, MO, cat. D2650) at 800-fold the tested concentration and stored at -70 degrees C prior to their use. All drugs and investigational agents were tested over a range starting from a high concentration at or near the clinical Cmax and decreasing in half-log increments. If the clinical Cmax for an agent had not been determined, the highest concentration tested was 10 microM.
# NCI60 Cell Culture. NCI60 cell lines were obtained from the NCI Developmental Therapeutics Program Tumor Repository. For each lot of cells, the Repository performed Applied Biosystems AmpFLSTR Identifiler testing with PCR amplification to confirm consistency with the published Identifier STR profile for each cell line. Cells were kept in continuous culture for no more than 20 passages. The optimal seeding densities for each of the cell lines at each time point assessed were determined prior to performing the concentration response studies. Briefly, the NCI60 human tumor lines were grown as monolayers in RPMI 1640 medium supplemented with 10% FBS and 2 mmol/L L-glutamine.
# An additional 9 lines were from the NCI60 cell line panel including MDA-MB-231 breast carcinoma, MDA-MB-468 breast carcinoma, MCF7 breast carcinoma, Hs578T breast carcinoma, MALME-3M melanoma, SK-MEL-2 melanoma, SK-OV-3 ovarian carcinoma, DU-145 prostate carcinoma, PC-3 prostate carcinoma, all cell lines along with major genetic alterations are listed on Table 2. Pooled donor human umbilical vein endothelial cells (HUVEC, Lonza, cat. CC-2519) and human mesenchymal stem cells (hMSC, Lonza, cat. PT-2501) were purchased from Lonza (Walkersville, MD).
# PDMR cell lines were grown in complete medium (DC medium): Dulbecco's modified Eagle's medium (DMEM)/F12 supplemented with 5% fetal bovine serum (FBS), 2 mM L-glutamine, 100 U/mL penicillin and 100 µg/ml streptomycin, 0.4 µg/ml hydrocortisone, 10 ng/ml epidermal growth factor (EGF) recombinant human protein, 24 µg/mL adenine, and 0.1 mg/mL primocin. During culture from frozen stock vials, PDMR cells were cultured in the same medium containing 10 µM Y-27632 (see Table 3). The PDCs were cultured in complete DMEM/F12 media without 10 microM Y-27632 dihydrochloride for at least two passages prior to the screen. The pooled donor HUVEC and hMSC were cultured in endothelial cell growth medium 2 (PromoCell, Heidelberg, Germany, cat. C-22011) and mesenchymal stem cell growth medium 2 (PromoCell, cat. C-28009), respectively. For all experiments, HUVEC and hMSC were used at passages </=5.
# […]
# 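Also: spheroids exposed to compounds for 7 days before readout.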
SMILES,"viability, T/C (compound alone 0.1 µM)","viability, T/C (compound alone 0.316 µM)","viability, T/C (compound alone 1 µM)",IC50,"viability, T/C (compound alone 0.01 µM)","viability, T/C (compound alone 0.0316 µM)"
CC(C)NCC(C(=O)N1CCN(c2ncnc3c2C(C)CC3O)CC1)c1ccc(Cl)cc1 (centres undefined),"87.8, 94.2, 81.2, 78.4, 87.2, 86, 96.7, 92.3, 89.2, 95.1, 77.2, 104, 94.7%","66.8, 73.9, 92.8, 69.3, 78.9 (2×), 66.4, 80.9, 71.5, 77.5, 75.2, 81.8, 80.8%","59.2, 67, 62.6 (2×), 59.4, 65.6, 69.7, 65.8, 68.5, 81.8, 50.7, 72.9, 58.4%","9.7 µM and 1.92, 8.52, 2.48, 4.67, 9.96, 2.81, 5.85, 9.67, 9.02, 6.18, 1.17, 2.4 µM [2021-06]",,
CCN1CCN(Cc2ccc(Nc3ncc(F)c(-c4cc(F)c5nc(C)n(C(C)C)c5c4)n3)nc2)CC1,"97.4, 84.2, 63.4, 100, 76.2, 61.7, 94.6, 94.3, 91.8, 107, 83.1, 113, 97.9%","87.2, 74.2, 62.2, 93.2, 90.5, 68.4, 109, 75.6, 66.9, 92.4, 81.1, 95.9, 67.2%",,"592 nM, 966 nM, 784 nM, 869 nM, 838 nM, > 1 µM","102, 105 (2×), 82.8, 92.6, 90.6, 86.8, 90.1, 101, 76.5, 106, 88.1, 111%","105 (3×), 69.4, 92, 101, 66.3, 108, 92.5, 88, 106, 90.2%"
